Measured values published in article PMC6919601, “Identification of Plasmodium dipeptidyl aminopeptidase allosteric inhibitors by high throughput screening” (PLoS ONE, 2019).
The whole screen tested about 110,000 compounds, of which about 230 (0.21%) showed an effect of 50% or more. This is one part of the list.

Molecular target: DPAP1 (Plasmodium falciparum, UniProt Q8IIJ9)
Assay: primary screen, percent inhibition; read by cleavage of a fluorogenic dipeptide substrate; higher = more effect of the substance
Parameters: species or system P. falciparum D10 trophozoite lysates; single well
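Note: 30 min substrate incubation versus DMSO and 10 µM JCP410 controls.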

Chain of DPAP1 (Q8IIJ9 whole entry, looked up): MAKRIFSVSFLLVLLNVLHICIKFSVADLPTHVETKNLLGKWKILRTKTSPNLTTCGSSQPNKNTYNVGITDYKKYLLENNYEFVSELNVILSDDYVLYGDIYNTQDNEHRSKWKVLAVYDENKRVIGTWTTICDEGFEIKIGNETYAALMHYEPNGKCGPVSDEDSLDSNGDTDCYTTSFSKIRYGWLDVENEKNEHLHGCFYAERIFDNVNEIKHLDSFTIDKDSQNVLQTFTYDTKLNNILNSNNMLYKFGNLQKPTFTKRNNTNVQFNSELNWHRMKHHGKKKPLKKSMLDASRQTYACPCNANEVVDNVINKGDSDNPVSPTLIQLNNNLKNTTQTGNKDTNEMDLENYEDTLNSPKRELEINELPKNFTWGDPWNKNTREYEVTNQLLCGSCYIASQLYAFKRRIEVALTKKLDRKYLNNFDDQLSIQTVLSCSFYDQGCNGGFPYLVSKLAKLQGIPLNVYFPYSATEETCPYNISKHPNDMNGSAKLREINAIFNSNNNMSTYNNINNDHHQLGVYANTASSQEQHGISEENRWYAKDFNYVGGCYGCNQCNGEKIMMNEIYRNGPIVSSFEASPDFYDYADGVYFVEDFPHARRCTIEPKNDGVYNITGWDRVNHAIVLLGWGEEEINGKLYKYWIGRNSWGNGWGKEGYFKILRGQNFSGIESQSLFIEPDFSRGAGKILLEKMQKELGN

Compound | % Inhibition @ 10 uM
Cc1cc2c(cc3c(SCC(=O)NCCc4ccccc4)nncn32)o1 | -2.6%
CC(CCc1ccccc1)N1CCN(c2ccccc2)CC1 (centres unmarked) | -0.0908%
CN1CCN(CCc2nnc(S)n2-c2ccc(OCc3ccccc3)cc2)CC1 | 11.3%
CC(C)OCCCNC(=O)C1CC(=O)N(C2CCCCC2)C1 (centres unmarked) | 3.24%
Cc1ccc(Nc2nc(N)nc(CN3CCN(c4ccccc4)CC3)n2)cc1 | -0.318%
CS(=O)(=O)c1sc2nc(-c3ccc(Br)cc3)cc(-c3ccccc3)c2c1N | -1.93%
N#CCCN(CCN1CCCC1)S(=O)(=O)c1cccc2nsnc12 | 6.31%
C/C(=N\OC(=O)c1c(-c2ccccc2Cl)noc1C)c1ccncc1 | -1.4%
CS(=O)(=O)N1N=C(c2ccco2)CC1c1ccccc1Cl (centres unmarked) | -3.19%
CCOC(=O)N1CCN(C(=O)C2CCC(CNS(=O)(=O)c3ccccc3)CC2)CC1 (centres unmarked) | -0.971%
Brc1ccccc1CN1CCN(c2ccccn2)CC1 | 2.23%
COc1ccc(C2CC(c3ccccc3OC(F)F)n3ncnc3N2)cc1 (centres unmarked) | -3.37%
CCc1nnc(NC(=O)C2CCN(C(=O)c3cc4sccc4n3Cc3ccc(F)cc3)CC2)s1 | -5.19%
CCOC(=O)c1c(S(=O)(=O)Nc2ccccn2)c(C)n(C)c1C | 1.84%
CN(C)CC(=O)c1ccc(-c2ccccc2)cc1 | -3.44%
CCCn1c2ccccc2c2cnn(CC(=O)NCCCN3CCCC(C)C3)c(=O)c21 (centres unmarked) | -2.71%
Fc1ccccc1CNC1CCN(Cc2ccccc2)CC1 | 3.35%
CCCN(C(=O)c1ccccc1OCC)c1nc(-c2ccccc2)cs1 | 0.128%
CCOc1ccc(Cl)cc1CNCCSc1nnnn1-c1ccccc1 | -1.11%
O=S1(=O)N=C(Nc2cc(Cl)ccc2Cl)c2ccccc21 | 0.98%
CC1=C(C(=O)OC2CCCC2)C(c2ccc(Br)cc2)NC(=O)N1 (centres unmarked) | 0.565%
OC(COc1ccc2oc3c(c2c1)CCCC3)CN1CCN(c2ccccc2)CC1 (centres unmarked) | -6.82%

Compound | % Inhibition @ 10 uM
COCC(C)NC(=O)c1c(-c2c(Cl)cccc2Cl)noc1C (centres unmarked) | -8.41%
Cc1nc2c(-c3ccccc3)c(C)nn2c(C)c1CCC(=O)N1CCC2(CC1)OCCO2 | -4.1%
Cc1ccc(Cn2c(C)c(CNC3CCCCC3C)c(C(=O)O)c2C)cc1 (centres unmarked) | 2.99%
CCC(C)NC(=O)c1cc(-c2ccc(Cl)c(Cl)c2)on1 (centres unmarked) | -2.47%
N#Cc1c(N)c2c(c(O)c1C#N)C(=O)c1ccccc1C2=O | 1.08%
COc1cc2c(cc1OC)CN(Cc1cccnc1)CC2 | 4.04%
Cc1ccc(NC(=O)C(C)Oc2ccccc2)cc1 (centres unmarked) | 2.64%
CC(C)Oc1ccccc1C1CC(=O)NC2=C1C(=O)CC(C)(C)C2 (centres unmarked) | -3.87%
Cc1cccc(C[C@@H](NC(=O)OCc2ccccc2)C(=O)NCC#N)c1 | -6.56%
Cc1cc(N2C(=O)c3ccc(C(=O)N4CCCCCC4)cc3C2=O)no1 | 0.868%
CCOc1ccc(/C=C2\Cc3ccccc3C2=O)cc1 | 5.5%
NC(=O)c1ccc(NC(=O)c2ccccc2C(=O)O)cc1 | -2.03%
CCCS(=O)(=O)N1CCCC(C(=O)NCCCN(Cc2ccccc2)C(C)C)C1 (centres unmarked) | 3.24%
Cc1ccc(OCCn2c(SCC(N)=O)nc3ccccc32)cc1 | 4.1%
CCCCC1(C)NC(=S)N(c2ccccc2)N1 (centres unmarked) | 0.0345%
O=S(=O)(NCCOc1ccc(Cl)cc1)c1ccc2oc3ccccc3c2c1 | 5.3%
c1ccc(-c2ccc(-c3cn4c5ccccc5n(CCN5CCCCC5)c4n3)cc2)cc1 | 1.27%
O=C(CSc1nc2ccccc2[nH]1)Nc1ccc(Br)c(Cl)c1 | 2.76%
CC(C)c1ccc(NC(=O)c2ccc(Br)cc2)cc1 | -3.56%
CSc1cnn(-c2ccccc2)c(=O)c1SC | 1.83%
O=C(Nc1cccc(Oc2ccc3c(c2)C(=O)NC3=O)c1)c1ccc(Br)o1 | -3.01%
Cc1cc(Cl)nc(Cl)c1C(=O)NC(=O)NC(C)(C)C | -0.703%

Compound | % Inhibition @ 10 uM
CC(=O)N1CCN(c2ccc(NCc3ccc4c(c3)OCO4)cc2)CC1 | -0.28%
COc1ccc(CNC(=O)CC2SC(NC3CCCCC3)=NC2=O)cc1 (centres unmarked) | 10.8%
Cc1n[nH]c(C)c1CCOc1ccc(C(C)C)cc1 | -0.553%
CC(C)c1ccc(-c2nc(O)c3c4c(sc3n2)CCCC4)cc1 | 2.05%
CN(C(=O)CCCN1C(=O)c2ccccc2C1=O)C1CC(C)(C)N(C)C(C)(C)C1 | 2.18%
CC(C)(C)c1ccc(S(=O)(=O)NCc2ccccn2)cc1 | 5.03%
Cc1noc(/C=C/c2ccco2)c1S(=O)(=O)N1CCC(C(=O)NCCc2ccccc2)CC1 | 2.14%
CCC(Sc1nnc(NC(C)=O)s1)C(=O)NC1=NN=C(c2ccc(C)cc2)CS1 (centres unmarked) | 4.3%
Cc1nc2c(-c3ccc(F)cc3)c(C)nn2c(C)c1CCC(=O)NCCC(C)C | 2.93%
O=c1oc2c(Cl)cc(Cl)cc2cc1-c1nc(-c2ccc(Cl)cc2)cs1 | 2.4%
CC(C)(C)C(=O)Nc1ccc(C(=O)Nc2ccccc2O)cc1 | -0.216%
COc1ccc(/C(O)=C/c2nc3ccc(C(=O)NCc4cccc(OC)c4)cc3nc2O)cc1 | 4.05%
Cc1ccc(Cn2nc(-c3ccccc3)nc2-c2ccccc2)cc1 | -2.18%
CCOc1cc(/C=C/c2cc(C(F)(F)F)nc(O)n2)ccc1O | -2.48%
COc1ccc(C)cc1N(CC(=O)N(C)Cc1ccccc1)S(C)(=O)=O | -1.61%
O=C(NCc1ccccc1)c1coc2nc3ccccc3nc12 | 1.42%
COCCNc1nn2c(=O)c3c4c(sc3nc2c2ccccc12)CC(C)CC4 (centres unmarked) | -7.9%
O=C(c1cc2ccccc2oc1=O)N1CCSC1c1ccc2c3c(cccc13)CC2 (centres unmarked) | 23.4%
Cc1cc(-c2ccc(C)c(S(=O)(=O)N3CCOCC3)c2)on1 | -4.13%
N#Cc1c(C(F)(F)F)cc(-c2cccs2)nc1SCC(=O)Nc1nccs1 | 0.121%
CCOc1ccc(N2C(=O)CC(NCCc3cccc(F)c3)C2=O)cc1 (centres unmarked) | -0.48%
